# The other results are listed elsewhere or left out.
# B1: MGL1 (Mus musculus), P49300 (protein)
# chain: MIYENLQNSRIEEKTQEPGKAPSQSFLWRILSWTHLLLFSLGLSLLLLVVVSVIGSQNSQLRRDLGTLRATLDNTTSKIKAEFQSLDSRADSFEKGISSLKVDVEDHRQELQAGRDLSQKVTSLESTVEKREQALKTDLSDLTDHVQQLRKDLKALTCQLANLKNNGSEVACCPLHWTEHEGSCYWFSESEKSWPEADKYCRLENSHLVVVNSLEEQNFLQNRLANVVSWIGLTDQNGPWRWVDGTDFEKGFKNWAPLQPDNWFGHGLGGGEDCAHITTGGPWNDDVCQRTFRWICEMKLAKES
# Columns and labels:
# Test in all cases: glycan array binding signal (z-score within array); higher = stronger binding
# Conditions in all cases: glycan notation: IUPAC condensed, linker removed
# Fuc(b1-3)GlcNAc = molecular target: Fuc(b1-3)GlcNAc
# Method in brief: (§1)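 Columns mapping to the same glycan were averaged after glycan names were converted to IUPAC-condensed notation. The data come from 3228 arrays in the Consortium for Functional Glycomics database, limited to those with an available protein sequence. Binding is reported as a within-array Z-score averaged across arrays of one protein sequence and across linkers.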
# Gal(a1-2)Gal = molecular target: Gal(a1-2)Gal
# Method in brief: as §1
# Gal(a1-3)Gal = molecular target: Gal(a1-3)Gal
# Method in brief: as §1
# Gal(a1-3)Gal(b1-3)Glc = molecular target: Gal(a1-3)Gal(b1-3)Glc
# Method in brief: as §1
# Gal(a1-3)Gal(b1-3)GlcNAc = molecular target: Gal(a1-3)Gal(b1-3)GlcNAc
# Method in brief: as §1
# [1] = molecular target: Gal(a1-3)Gal(b1-3)GlcNAc(b1-2)Man
# Method in brief: as §1
# [2] = molecular target: Gal(a1-3)Gal(b1-3)GlcNAc(b1-2)Man(a1-3)[Gal(a1-3)Gal(b1-3)GlcNAc(b1-2)Man(a1-6)]Man(b1-4)GlcNAc(b1-4)GlcNAc
# Method in brief: as §1
# [3] = molecular target: Gal(a1-3)Gal(b1-3)GlcNAc(b1-3)GalNAc
# Method in brief: as §1
# [4] = molecular target: Gal(a1-3)Gal(b1-3)GlcNAc(b1-6)GalNAc
# Method in brief: as §1
# [5] = molecular target: Gal(a1-3)Gal(b1-3)[Fuc(a1-4)]GlcNAc(b1-2)Man(a1-3)[Gal(a1-3)Gal(b1-3)[Fuc(a1-4)]GlcNAc(b1-2)Man(a1-6)]Man(b1-4)GlcNAc(b1-4)GlcNAc
# Method in brief: as §1
# Gal(a1-3)Gal(b1-4)Glc = molecular target: Gal(a1-3)Gal(b1-4)Glc
# Method in brief: as §1
# Gal(a1-3)Gal(b1-4)GlcNAc = molecular target: Gal(a1-3)Gal(b1-4)GlcNAc
# Method in brief: as §1
# [6] = molecular target: Gal(a1-3)Gal(b1-4)GlcNAc(b1-2)Man
# Method in brief: as §1
# [7] = molecular target: Gal(a1-3)Gal(b1-4)GlcNAc(b1-2)Man(a1-3)[Gal(a1-3)Gal(b1-4)GlcNAc(b1-2)Man(a1-6)]Man(b1-4)GlcNAc(b1-4)GlcNAc
# Method in brief: as §1
# [8] = molecular target: Gal(a1-3)Gal(b1-4)GlcNAc(b1-3)GalNAc
# Method in brief: as §1
# [9] = molecular target: Gal(a1-3)Gal(b1-4)GlcNAc(b1-6)GalNAc
# Method in brief: as §1
# [10] = molecular target: Gal(a1-3)Gal(b1-4)[Fuc(a1-3)]GalNAc
# Method in brief: as §1
# [11] = molecular target: Gal(a1-3)Gal(b1-4)[Fuc(a1-3)]GlcNAc
# Method in brief: as §1
# [12] = molecular target: Gal(a1-3)Gal(b1-4)[Fuc(a1-3)]GlcNAc(b1-2)Man(a1-3)[Gal(a1-3)Gal(b1-4)[Fuc(a1-3)]GlcNAc(b1-2)Man(a1-6)]Man(b1-4)GlcNAc(b1-4)GlcNAc
# Method in brief: as §1
# Gal(a1-3)GalNAc = molecular target: Gal(a1-3)GalNAc
# Method in brief: as §1
# Gal(a1-3)GlcNAc = molecular target: Gal(a1-3)GlcNAc
# Method in brief: as §1
# [13] = molecular target: Gal(a1-3)[Gal(a1-4)]Gal(b1-4)GlcNAc
# Method in brief: as §1
# [14] = molecular target: Gal(a1-4)Gal(b1-3)GlcNAc(b1-2)Man(a1-3)[Gal(a1-4)Gal(b1-3)GlcNAc(b1-2)Man(a1-6)]Man(b1-4)GlcNAc(b1-4)GlcNAc
# Method in brief: as §1
# Gal(a1-4)Gal(b1-4)Gal = molecular target: Gal(a1-4)Gal(b1-4)Gal
# Method in brief: as §1
# Gal(a1-4)Gal(b1-4)GalNAc = molecular target: Gal(a1-4)Gal(b1-4)GalNAc
# Method in brief: as §1
# Gal(a1-4)Gal(b1-4)Glc = molecular target: Gal(a1-4)Gal(b1-4)Glc
# Method in brief: as §1
# Gal(a1-4)Gal(b1-4)GlcNAc = molecular target: Gal(a1-4)Gal(b1-4)GlcNAc
# Method in brief: as §1
# [15] = molecular target: Gal(a1-4)Gal(b1-4)GlcNAc(b1-2)Man(a1-3)[Gal(a1-4)Gal(b1-4)GlcNAc(b1-2)Man(a1-6)]Man(b1-4)GlcNAc(b1-4)GlcNAc
# Method in brief: as §1
# [16] = molecular target: Gal(a1-4)Gal(b1-4)GlcNAc(b1-3)Gal(b1-4)Glc
# Method in brief: as §1
# Gal(a1-4)GlcNAc = molecular target: Gal(a1-4)GlcNAc
# Method in brief: as §1
# Gal(a1-6)Glc = molecular target: Gal(a1-6)Glc
# Method in brief: as §1
# Gal(b1-2)Gal = molecular target: Gal(b1-2)Gal
# Method in brief: as §1
# Gal(b1-3)Gal = molecular target: Gal(b1-3)Gal
# Method in brief: as §1
# Gal(b1-3)Gal(b1-4)GlcNAc = molecular target: Gal(b1-3)Gal(b1-4)GlcNAc
# Method in brief: as §1
# Gal(b1-3)GalNAc = molecular target: Gal(b1-3)GalNAc
# Method in brief: as §1
# [17] = molecular target: Gal(b1-3)GalNAc(a1-3)[Fuc(a1-2)]Gal(b1-4)Glc
# Method in brief: as §1
# [18] = molecular target: Gal(b1-3)GalNAc(a1-3)[Fuc(a1-2)]Gal(b1-4)GlcNAc
# Method in brief: as §1
binder,measurement,setting,value
B1,glycan array binding signal (z-score),Fuc(b1-3)GlcNAc,0.3
same,glycan array binding signal (z-score),Gal(a1-2)Gal,0.142
same,glycan array binding signal (z-score),Gal(a1-3)Gal,-0.316
same,glycan array binding signal (z-score),Gal(a1-3)Gal(b1-3)Glc,-0.146
same,glycan array binding signal (z-score),Gal(a1-3)Gal(b1-3)GlcNAc,0.006
same,glycan array binding signal (z-score),[1],-0.462
same,glycan array binding signal (z-score),[2],0.854
same,glycan array binding signal (z-score),[3],0.472
same,glycan array binding signal (z-score),[4],0.267
same,glycan array binding signal (z-score),[5],-0.177
same,glycan array binding signal (z-score),Gal(a1-3)Gal(b1-4)Glc,-0.545
same,glycan array binding signal (z-score),Gal(a1-3)Gal(b1-4)GlcNAc,-0.512
same,glycan array binding signal (z-score),[6],-0.397
same,glycan array binding signal (z-score),[7],0.941
same,glycan array binding signal (z-score),[8],-0.744
same,glycan array binding signal (z-score),[9],0.224
same,glycan array binding signal (z-score),[10],-0.125
same,glycan array binding signal (z-score),[11],-0.823
same,glycan array binding signal (z-score),[12],-0.363
same,glycan array binding signal (z-score),Gal(a1-3)GalNAc,-0.127
same,glycan array binding signal (z-score),Gal(a1-3)GlcNAc,-0.127
same,glycan array binding signal (z-score),[13],1.06
same,glycan array binding signal (z-score),[14],2.41
same,glycan array binding signal (z-score),Gal(a1-4)Gal(b1-4)Gal,-0.073
same,glycan array binding signal (z-score),Gal(a1-4)Gal(b1-4)GalNAc,-0.121
same,glycan array binding signal (z-score),Gal(a1-4)Gal(b1-4)Glc,0.134
same,glycan array binding signal (z-score),Gal(a1-4)Gal(b1-4)GlcNAc,1.47
same,glycan array binding signal (z-score),[15],0.971
same,glycan array binding signal (z-score),[16],-0.091
same,glycan array binding signal (z-score),Gal(a1-4)GlcNAc,-0.286
same,glycan array binding signal (z-score),Gal(a1-6)Glc,-0.433
same,glycan array binding signal (z-score),Gal(b1-2)Gal,-0.24
same,glycan array binding signal (z-score),Gal(b1-3)Gal,-0.039
same,glycan array binding signal (z-score),Gal(b1-3)Gal(b1-4)GlcNAc,-0.408
same,glycan array binding signal (z-score),Gal(b1-3)GalNAc,-0.112
same,glycan array binding signal (z-score),[17],-0.106
same,glycan array binding signal (z-score),[18],0.981

# — the supplement of paper PMC8728848
